Source: PubChem BioAssay AID2147 (National Center for Advancing Translational Sciences (NCATS), 2009)
The campaign covered roughly 230,000 compounds. About 3,600 (1.6%) were called active. Inconclusive results, whose numbers are uncertain, are shown with a selection of clear calls. Calls come from the whole dose curve; as a rule, active = well fitted inhibition curve with a large enough effect (not every such curve was filed as active); inconclusive = small, poorly fitted or top-dose-only effect, or another doubt; inactive = no such curve, though single readings can be large or run the other way. Potencies of inconclusive entries are doubtful fits and often do not repeat.

biological target: Lysine-specific demethylase 4E (Homo sapiens) (UniProt B2RXH2); assay: qHTS Assay for Inhibitors of Human Jumonji Domain Containing 2E (JMJD2E); conditions: JMJD2E catalytic domain, FDH-coupled NADH fluorescence (FDH is formaldehyde dehydrogenase); series mostly up to 57.1 µM
Note: nearly all actives have a fitted effect of over 50% in size.
Potency is the fitted concentration of half-maximal effect; tags give direction and shape of the fitted curve.

Sequence of UniProt B2RXH2 (B2RXH2 whole entry, looked up, the tested form may be a part): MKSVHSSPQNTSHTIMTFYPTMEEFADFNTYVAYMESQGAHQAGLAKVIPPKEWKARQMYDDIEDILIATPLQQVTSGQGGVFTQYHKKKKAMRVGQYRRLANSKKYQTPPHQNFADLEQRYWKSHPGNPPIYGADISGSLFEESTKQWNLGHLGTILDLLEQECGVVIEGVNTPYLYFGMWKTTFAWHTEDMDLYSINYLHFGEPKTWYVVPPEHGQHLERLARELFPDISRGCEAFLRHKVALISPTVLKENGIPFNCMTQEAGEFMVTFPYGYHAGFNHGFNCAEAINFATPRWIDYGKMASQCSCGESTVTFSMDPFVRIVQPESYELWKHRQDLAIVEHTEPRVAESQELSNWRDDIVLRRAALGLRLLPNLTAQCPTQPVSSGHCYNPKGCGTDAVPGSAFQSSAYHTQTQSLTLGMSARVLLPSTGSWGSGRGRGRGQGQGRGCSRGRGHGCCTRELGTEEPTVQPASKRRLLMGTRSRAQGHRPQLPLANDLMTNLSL

Row | Compound | Potency
1 | CN1CCN(C(=O)CCCOc2cc(=O)n(C)c3ccccc23)CC1 | inactive
2 | CCOC(=O)N1CCN(c2ccc(O)cc2)CC1 | inconclusive: 39.8 µM [inhibitor, single point]
3 | COc1ccc(Nc2nc(C)c(-c3ccccc3)s2)cc1 | inconclusive: 35.5 µM [inhibitor, single point]
4 | CS(=O)(=O)N1CC(C(=O)NN)Oc2ccc(Cl)cc21 (stereo not drawn) | inactive
5 | CCOC(=O)C1=C(C)NC(C)=C(C(=O)OCC)C1C(=O)OCC(=O)N1CCc2ccccc21 | inconclusive: 39.8 µM [inhibitor, single point]
6 | CN(/N=C/c1ccc(O)cc1O)c1ncc(C(F)(F)F)cc1Cl | inconclusive: 39.8 µM [inhibitor, single point]
7 | Cc1ccccc1N=Nc1ccc(O)c2ncccc12 | inactive
8 | CCOc1ccccc1Nc1nc(N)nc(CN(C)C2CCCCC2)n1 | inactive
9 | COC(=O)c1ccc(COC(=O)c2ccc(N(C)C)cc2)cc1 | inconclusive: 35.5 µM [inhibitor, partial curve]
10 | COc1ccccc1C1/C(=C(/O)c2ccc(C)cc2)C(=O)C(=O)N1CC(C)O (stereo not drawn) | inactive
11 | CCOc1ccc2ccccc2c1/C=N/NC(=O)CNC(=O)Cc1ccccc1 | inconclusive: 39.8 µM [inhibitor, single point]
12 | O=C(Oc1ccc(Cl)c2cccnc12)N1CCCCC1 | inconclusive: 39.8 µM [inhibitor, single point]
13 | COc1ccc(C2C(C#N)=C(N)Oc3c2c(-c2ccccc2)nn3-c2ccccc2)c(OC)c1OC (stereo not drawn) | inconclusive: 28.2 µM [inhibitor, partial curve]
14 | O=C(Nc1ccc(N2CCN(C(=O)c3ccco3)CC2)cc1)c1cccnc1Cl | inconclusive: 25.1 µM [inhibitor, single point]
15 | CC1=C(C(=O)OCC(C)C)C(c2ccccc2Cl)NC(=O)N1C (stereo not drawn) | inactive
16 | Cc1ccc2nc(C(F)C(F)(F)F)[nH]c2c1 (stereo not drawn) | inconclusive: 28.2 µM [inhibitor, single point]
17 | CCOC(=O)C1=C(C)NC(C)=C(C(=O)OCC)C1c1sccc1C | inconclusive: 28.2 µM [inhibitor, single point]
18 | OCC1(Cc2ccccc2)CCN(Cc2cnc(-c3cccc4ccccc34)nc2)CC1 | inconclusive: 35.5 µM [inhibitor, single point]
19 | COc1cc2c(cc1OC)C(c1ccc(-c3ccccc3Cl)o1)=NCC2 | inactive
20 | O=C(c1cc(O)c(O)c([N+](=O)[O-])c1)c1ccccc1F | active: 11.2 µM
21 | O=C(Nc1cccc(F)c1)c1ccc(-c2ccccc2Cl)o1 | inactive
22 | O=C(O)CC(Cn1[nH]nnc1=S)c1ccccc1 (stereo not drawn) | inconclusive: 31.6 µM [inhibitor, single point]
23 | CC(=O)Nc1ccc(Cl)cc1C(=O)O | inconclusive: 28.2 µM [inhibitor, partial curve]
24 | COc1cc2nc(SCc3ccc(C(F)(F)F)cc3)n(Cc3cccs3)c(=N)c2cc1OC | inconclusive: 31.6 µM [inhibitor, single point]
25 | COC(=O)c1cc(COc2ccc3ccc(=O)oc3c2)c(C)o1 | inconclusive: 10 µM [inhibitor, partial curve]

Row | Compound | Potency
26 | CC1CCC(C(C)C)C(OC(=O)COC(=O)c2cc(O)ccc2N)C1 (stereo not drawn) | inconclusive: 28.2 µM [inhibitor, partial curve]
27 | O=C1c2ccccc2NC(c2ccccc2Cl)N1N=C1CCCCCC1 (stereo not drawn) | inconclusive: 25.1 µM [inhibitor, partial curve]
28 | Cc1ccc(-c2nnc(CSc3nncn3N)o2)cc1 | inactive
29 | CCOC(=O)c1ccc2[nH]c3ccccc3c2c1 | inconclusive: 28.2 µM [inhibitor, partial curve]
30 | COc1ccc(-c2ccc(/C=C3/C(=N)N4C=CSC4=NC3=O)o2)c([N+](=O)[O-])c1 | inconclusive: 10 µM [inhibitor, partial curve]
31 | COc1cc(/C=C2/C(=N)N3OC(C)=CC3=NC2=O)ccc1OC(=O)c1ccco1 | inactive
32 | COc1cc(/C=C2/C(=N)N3C=CSC3=NC2=O)ccc1OCCCOc1ccccc1C | inconclusive: 11.2 µM [inhibitor, partial curve]
33 | CCn1ncc(CNC(=O)CCCSc2nc(-c3ccco3)cc(C(F)(F)F)n2)c1C | inactive
34 | O=C(/C=C/Nc1ccccc1F)c1cccs1 | inactive
35 | Nc1ccc(N2CCN(C(=O)c3ccco3)CC2)cc1 | inactive
36 | O=C(Nc1ccccc1)Nc1ccc(S(=O)(=O)N2CCCCC2)cc1 | inconclusive: 39.8 µM [inhibitor, single point]
37 | Cc1cc(=O)n2[nH]c(NCc3ccccc3F)nc2n1 | inconclusive: 28.2 µM [inhibitor, single point]
38 | CCC(CC)C(=O)Nc1cccc(/C(C)=N/NC(=O)c2c(Br)cnn2C)c1 | inactive
39 | COC(=O)c1sccc1NC(=O)CN(C)NS(=O)(=O)c1ccc(Cl)cc1 | inactive
40 | CCOC(=O)Cn1nnnc1CN(Cc1cccs1)Cc1cc2cc(C)cc(C)c2[nH]c1=O | inconclusive: 39.8 µM [inhibitor, single point]
41 | COc1ccc(Cl)cc1NC(=S)NNC(=O)c1cccnc1 | inactive
42 | N[C@@H](CO)c1nnc([C@H](CC(=O)O)NC(=O)C2CCNCC2)o1 | inactive
43 | CC(=O)OC(/C(O)=C(\C#N)c1nc2ccccc2[nH]1)c1ccccc1 (stereo not drawn) | inconclusive: 39.8 µM [inhibitor, single point]
44 | COc1ccc(S(=O)(=O)NCCSCc2ccco2)cc1 | inactive
45 | CC(C)(C)c1cc(CN2CCC(O)CC2)cc(C(C)(C)C)c1O | inconclusive: 31.6 µM [inhibitor, single point]
46 | CCOc1ccc(OCCn2ccnc2)cc1 | inconclusive: 39.8 µM [inhibitor, single point]
47 | Cc1ccc(NC(=O)c2cc(N3C(=O)C4CCCCC4C3=O)ccc2N2CCOCC2)cc1 (stereo not drawn) | inactive
48 | Cc1cc(C)c2nc(NNC(=O)c3ccc(S(=O)(=O)N4CCCC(C)C4)cc3)sc2c1 (stereo not drawn) | inconclusive: 28.2 µM [inhibitor, single point]
49 | CCN(Cc1nc2ccccc2c(=O)[nH]1)Cc1cc(=O)oc2cc(OC)ccc12 | inconclusive: 25.1 µM [inhibitor, partial curve]
50 | Cc1ccc2occ(CN3CCN(Cc4ccccc4)CC3)c(=O)c2c1 | inactive

Row | Compound | Potency
51 | Cc1ccc(-c2csc3nc(CN(C)Cc4ccccc4)[nH]c(=O)c23)cc1 | inconclusive: 39.8 µM [inhibitor, single point]
52 | CCN(CC)CCCC(C)n1c(-c2ccccc2)nc2c(N(CCOC)CCOC)nc(C)nc21 (stereo not drawn) | inconclusive: 31.6 µM [inhibitor, partial curve]
53 | C=CCS/C(N)=N\N=C\c1c(O)ccc2ccccc12 | inconclusive: 25.1 µM [inhibitor, single point]
54 | O=C1Nc2ccccc2N(O)N1c1ccc(S(=O)(=O)Nc2ccccn2)cc1 | inconclusive: 7.08 µM [inhibitor, single point]
55 | O=C(Nc1ccc(F)cc1)C1C(c2ccccc2)C1(Cl)Cl (stereo not drawn) | inactive
56 | CCOC(=O)c1c(CN2CCCCC2C)oc2ccc(OC)cc12 (stereo not drawn) | inconclusive: 35.5 µM [inhibitor, single point]
57 | CCc1cccc(OCCCCNCCOC)c1 | inconclusive: 35.5 µM [inhibitor, single point]
58 | Cc1c(NC(=O)COc2ncnc3ccccc23)c(=O)n(-c2ccccc2)n1C | inactive
59 | CC1Cc2ccccc2N1C(=O)CO/N=C/c1ccccc1OC(F)F (stereo not drawn) | inactive
60 | CCCc1nc(-c2cc3ccccc3[nH]c2=O)no1 | inconclusive: 31.6 µM [inhibitor, partial curve]
61 | Cc1cc(NCCCN2CCOCC2)n2nc(C)c(-c3ccc(F)cc3)c2n1 | inconclusive: 10 µM [inhibitor, partial curve]
62 | Cc1cc(C)c(C#N)c(Sc2ccccc2N)n1 | inconclusive: 35.5 µM [inhibitor, single point]
63 | Cc1ccc(NCc2nnc(SCC(N)=O)n2CC2CCCO2)c(C)c1 (stereo not drawn) | inactive
64 | CC(C)(C)c1ccc(-n2nc(C#N)c(Cl)cc2=O)cc1 | inconclusive: 15.8 µM [inhibitor, partial curve, poor fit]
65 | COc1ccc(Cn2nnnc2C(c2ccccc2)N2CCN(C3CCCC3)CC2)cc1 (stereo not drawn) | inconclusive: 39.8 µM [inhibitor, single point]
66 | CCc1cc2c(NCCO)ncnc2s1 | inconclusive: 31.6 µM [inhibitor, single point]
67 | CCOc1cc(/C=C(/C#N)c2ccc(Cl)cc2)cc(Cl)c1OCC(=O)O | inconclusive: 35.5 µM [inhibitor, single point]
68 | COc1cccc(-n2c(SCc3cc(=O)oc4cc(O)c(O)cc34)nc3ccccc3c2=O)c1 | active: 12.6 µM
69 | O=c1[nH]ccc2c(O)cccc12 | inconclusive: 28.2 µM [inhibitor, partial curve]
70 | COc1cc(C(CC(=O)N2CCCC2)c2c(OC)cc(OC)c3ccc(=O)oc23)cc(OC)c1OC (stereo not drawn) | inconclusive: 28.2 µM [inhibitor, single point]
71 | COc1ccc(NC(=O)C2(c3ccc(NC(=O)c4ccc(C)cc4)cc3)CCCC2)cc1 | inconclusive: 10 µM [inhibitor, partial curve]
72 | COCCCNc1nc2ccccc2nc1NS(=O)(=O)c1ccccc1 | inconclusive: 31.6 µM [inhibitor, partial curve]
73 | COc1cc(/C=C/C(=O)N(C)c2ccccc2C(=O)O)cc(OC)c1OC | inconclusive: 39.8 µM [inhibitor, single point]
